A lower IC50 marks a more sensitive line; a limit (>, <) means that the fit lies beyond the doses tested. AUC, from the same fit, is the share of area under the viability curve across the 256-fold dose range; it is 1 without any effect and falls as sensitivity rises. For some of these results: Where the top dose is marked as inferred, it was calculated from the reported fits. For some of these results: Where an entry number is given, a second screen of the drug exists; the two often differ.
Columns and labels:
Assay in all cases: Viability of human cancer cell lines after 72 h of drug (GDSC screen)
CEP-701 = compound: C[C@]12O[C@H](C[C@]1(O)CO)n1c3ccccc3c3c4c(c5c6ccccc6n2c5c31)CNC4=O [CEP-701]; conditions: top dose 2 µM; top dose inferred
Description: (§1)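 Human cancer cell lines in 384-well plates, medium with 10% serum, drug for 72 h over a 256-fold dose range (nine 2-fold or five 4-fold steps up to the top dose). Adherent lines were fixed and stained with the nucleic acid dye Syto60, suspension lines read with resazurin; signal relative to control wells, capped at 0 and 100%. One two-parameter sigmoid per drug and line, fitted in a mixed model over all curves with the slope shared within a line.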

GDC0941 = compound: CS(=O)(=O)N1CCN(Cc2cc3nc(-c4cccc5[nH]ncc45)nc(N4CCOCC4)c3s2)CC1 [GDC0941]; conditions: top dose 4 µM; screen: GDSC drug entry 1527; top dose inferred
Description: as §1

SB 216763 = compound: Cn1cc(C2=C(c3ccc(Cl)cc3Cl)C(=O)NC2=O)c2ccccc21 [SB 216763]; conditions: top dose 10 µM; top dose inferred
Description: as §1

AR-42 = compound: CC(C)[C@H](C(=O)Nc1ccc(C(=O)NO)cc1)c1ccccc1 [AR-42]; conditions: top dose 5.12 µM; top dose inferred
Description: as §1

Pazopanib = compound: Cc1ccc(Nc2nccc(N(C)c3ccc4c(C)n(C)nc4c3)n2)cc1S(N)(=O)=O [Pazopanib]; conditions: top dose 8 µM
Description: as §1

Cell Line | AUC (CEP-701) | IC50 (CEP-701) | AUC (GDC0941) | IC50 (GDC0941) | AUC (SB 216763) | IC50 (SB 216763) | AUC (AR-42) | IC50 (AR-42) | AUC (Pazopanib) | IC50 (Pazopanib)
NCI-H2291 (lung adenocarcinoma, adherent) | 0.801 | 1450 nM | 0.594 | 501 nM | 0.983 | > 10 µM | 0.984 | > 5120 nM | 0.983 | > 8 µM
NCI-H2342 (lung adenocarcinoma, adherent) | 0.941 | > 2000 nM | 0.601 | 488 nM | 0.986 | > 10 µM | 0.868 | > 5120 nM | 0.712 | 2.12 µM
NCI-H2347 (lung adenocarcinoma, adherent) | 0.873 | > 2000 nM | 0.81 | 2670 nM | 0.981 | > 10 µM | 0.552 | 458 nM | 0.912 | > 8 µM
NCI-H2405 (lung adenocarcinoma, adherent) | 0.845 | 1680 nM | 0.829 | 2860 nM | 0.88 | > 10 µM | 0.688 | 1140 nM | 0.933 | > 8 µM
NCI-H2452 (mesothelioma, adherent) | 0.793 | 1110 nM | 0.752 | 1560 nM | 0.935 | > 10 µM | 0.96 | > 5120 nM | 0.907 | > 8 µM
NUGC-4 (stomach, adherent) | 0.89 | > 2000 nM | 0.782 | 1670 nM | 0.988 | > 10 µM | 0.629 | 728 nM | 0.894 | > 8 µM
NY (osteosarcoma, adherent) | 0.682 | 401 nM | 0.875 | 3840 nM | 0.961 | > 10 µM | 0.954 | > 5120 nM | 0.716 | 2.02 µM
OE19 (oesophagus, adherent) | 0.865 | > 2000 nM | 0.883 | > 4000 nM | 0.943 | > 10 µM | 0.776 | 2330 nM | 0.979 | > 8 µM
OE33 (oesophagus, adherent) | 0.872 | > 2000 nM | 0.751 | 1540 nM | 0.893 | > 10 µM | 0.638 | 834 nM | 0.962 | > 8 µM
OSC-20 (head and neck, adherent) | 0.696 | 498 nM | 0.683 | 905 nM | 0.98 | > 10 µM | 0.562 | 488 nM | 0.902 | > 8 µM
OVCAR-5 (ovary, adherent) | 0.721 | 607 nM | 0.658 | 754 nM | 0.982 | > 10 µM | 0.483 | 286 nM | 0.939 | > 8 µM
OVISE (ovary, adherent) | 0.636 | 337 nM | 0.789 | 2450 nM | 0.963 | > 10 µM | 0.664 | 1070 nM | 0.98 | > 8 µM
OVMIU (ovary, adherent) | 0.782 | 1060 nM | 0.632 | 637 nM | 0.961 | > 10 µM | 0.536 | 410 nM | 0.963 | > 8 µM
OVTOKO (ovary, adherent) | 0.559 | 189 nM | 0.596 | 494 nM | 0.974 | > 10 µM | 0.672 | 1110 nM | 0.943 | > 8 µM
PA-TU-8902 (pancreas, adherent) | 0.702 | 513 nM | 0.702 | 1030 nM | 0.98 | > 10 µM | 0.527 | 385 nM | 0.957 | > 8 µM
PA-TU-8988T (pancreas, adherent) | 0.712 | 497 nM | 0.785 | 1720 nM | 0.94 | > 10 µM | 0.791 | 2320 nM | 0.932 | > 8 µM
PANC-03-27 (pancreas, adherent) | 0.683 | 391 nM | 0.765 | 1380 nM | 0.989 | > 10 µM | 0.698 | 1100 nM | 0.927 | > 8 µM
PANC-04-03 (pancreas, adherent) | 0.908 | > 2000 nM | 0.798 | 3480 nM | 0.978 | > 10 µM | 0.885 | > 5120 nM | 0.975 | > 8 µM
PANC-08-13 (pancreas, adherent) | 0.912 | > 2000 nM | 0.733 | 1420 nM | 0.965 | > 10 µM | 0.791 | 3050 nM | 0.961 | > 8 µM
PC-3 [JPC-3] (lung adenocarcinoma, adherent) | 0.722 | 666 nM | 0.87 | > 4000 nM | 0.98 | > 10 µM | 0.577 | 557 nM | 0.904 | > 8 µM
PC-14 (lung adenocarcinoma, adherent) | 0.692 | 402 nM | 0.916 | > 4000 nM | 0.99 | > 10 µM | 0.477 | 279 nM | 0.895 | 7.89 µM
PCI-4B (head and neck, adherent) | 0.495 | 122 nM | 0.803 | 1870 nM | 0.978 | > 10 µM | 0.477 | 278 nM | 0.98 | > 8 µM
PCI-6A (head and neck, adherent) | 0.433 | 82.1 nM | 0.949 | > 4000 nM | 0.971 | > 10 µM | 0.351 | 125 nM | 0.988 | > 8 µM
PCI-15A (head and neck, adherent) | 0.683 | 408 nM | 0.943 | > 4000 nM | 0.955 | > 10 µM | 0.987 | > 5120 nM | 0.949 | > 8 µM
PE/CA-PJ15 (head and neck, adherent) | 0.907 | > 2000 nM | 0.723 | 1140 nM | 0.923 | > 10 µM | 0.75 | 1790 nM | 0.986 | > 8 µM
